Assay results from ChEMBL document CHEMBL4888484, “Replenishing the malaria drug discovery pipeline: Screening and hit evaluation of the MMV Hit Generation Library 1 (HGL1) against asexual blood stage Plasmodium falciparum ,using a nano luciferase reporter read-out” (2022).
Out of some 150,000 compounds screened, about 540 (0.36%) showed an effect of 50% or more. The list shows a part of the results.

Tested on: Plasmodium falciparum
Assay: Primary screen in NF54 nanoGlo assay, in single point, at 2uM, 72h; a lower Z score goes with more inhibition
Assay type: functional, Erythrocyte
Details: timepoint 72 hour

SMILES	% Inhibition [%]	Z score
CC(C)n1cccc1C(=O)N1CC[C@@]2(CCCN(C3CCCC3)C2=O)C1	-11	0.98
CC(NC1C2CCOC2C1(C)C)c1cnc2ccsc2c1 (configuration not stated)	-5	0.41
CC(C)(C)OC(=O)N[C@H](Cc1ccccc1)C(N)=O	-5	0.68
O=C(c1cccc(S(=O)(=O)N2CCCC2)c1)N1CCC[C@H]1c1cccs1	-21	2.15
CCn1ncc(CN2C[C@@H]3OC(=O)N(Cc4ccccn4)[C@@H]3C2)c1C	-6	1.18
Cc1ccccc1-c1csc(=O)n1Cc1ccc(C(N)=O)cc1	-3	0.6
CC(C)(C#N)CCCn1ncccc1=O	-4	0.38
CCc1nc(C)c(C(=O)N[C@H]2[C@@H]3CCO[C@@H]3[C@@H]2C2CCCC2)o1	2	-0.27
CCCN1C(=O)N(c2ccc(=O)n(CC)c2)C(=O)[C@@H]1C	-9	0.95
CCOC(=O)C(C(=O)OCC)N(C)C(=O)COC[C@H]1CCCO1	-9	1.62
COc1ccc(CCC(=O)N2CC[C@H]3C(=O)N(Cc4cccc(C)c4)CC(=O)N3CC2)cc1	-13	1.79
CC(C)(C)OC(=O)N1C[C@@H](Nc2cccc(-n3cnc4ccccc43)n2)CC2(CCOCC2)C1	-19	2
CCCN(C)c1nccn2c(=O)n(CC(=O)Nc3ccc4c(c3)OCCO4)nc12	-3	0.32
CC(C)Cc1noc(C2(c3cccc(Br)c3)CCOCC2)n1	-3	0.67
CC(O)CC(C)(C)CNC(=O)NCC1CCOC1c1ccccc1 (configuration not stated)	5	-0.74
Cc1cc(CN[C@@H](C)c2n[nH]c(=O)n2C)ccc1F	-14	1.16
CN1C(=O)c2cc(C(=O)NCc3ccccc3Cl)nn2C[C@@]1(C)C(=O)NC1CCCCC1	13	-1.47
CCCN(CCC)S(=O)(=O)N1CCc2c(O)nn(C)c2C1	0	0.01
Cc1ccc(C(=O)N(C)CCc2noc(-c3cc4cc(Cl)ccc4[nH]3)n2)s1	-14	2.61
CN(C)C(=O)C1(CNc2cnc(C#N)cn2)CCCC1	9	-1.13
CCc1ccc(CN2CCC(OCCOC)CC2)o1	-5	0.51
CC(C)OCCNC(=O)NCc1ccnc2ccccc12	1	-0.14

SMILES	% Inhibition [%]	Z score
CC(C)CCS(=O)(=O)Nc1cccc2[nH]cnc12	13	-1.79
CC1CN(C(=O)Cc2csc(-c3cccnc3)n2)CC(C)O1 (configuration not stated)	-15	2
CN1CC[C@@H](C(=O)Nc2cnccc2Nc2ccccc2)S1(=O)=O	-7	0.84
CCC[C@@H](CCC(=O)Nc1ccccn1)C(=O)O	-8	1.1
N#CCN(C(=O)c1ccc2ccccc2c1)C1CCCC1	-5	0.62
CCCn1cnnc1Cn1cnc(-c2ccccc2)c1-c1ccccc1OCC	-7	1.43
CC(C)(C)c1nc(C(=O)NCCn2cnc(C(=O)O)c2)cs1	-12	1.6
NS(=O)(=O)c1ccc(CCNc2nccn3cnnc23)cc1	-8	1.57
COc1ccc(-c2noc(-c3ccc(N4CCC(N5CCCCC5)CC4)nc3)n2)cc1	1	-0.07
O=C(NCCc1cnc(C2CC2)nc1)c1nccc2cccnc12	-7	0.93
Cc1ccsc1[C@H]1CCN(C(=O)c2ccccc2C#N)C[C@@H]1O	-17	2.06
Cc1nc2ccc(NC(=O)N3Cc4ccccc4C(C)(C)C3)cn2n1	0	0
CCc1ccccc1CNC(=O)C1CC(O)CN1 (configuration not stated)	-6	1.23
C[C@H](NC(=O)NCc1nnc(-c2ccccc2)s1)c1cnn(C)c1	4	-0.58
CCc1occc1C(=O)NC[C@H]1CCCCN1CCO	17	-2.69
CC[C@H](C)NC(=O)c1ncccc1C(=O)OC(C)(C)C	-8	1.06
CC(C)(CNCc1ccc(F)cc1)S(C)(=O)=O	-8	1.14
CC1CCN(S(=O)(=O)c2cccn(CC(=O)N3CCCCC3)c2=O)CC1	7	-1.35
CN1CC[C@@H](CNC(=O)c2ccnc3c2ncn3C)[C@@H]1c1cccnc1	1	-0.18
CC(C)N(Cc1cc(-c2ccccc2)[nH]n1)C(=O)c1ccn(C(C)C)n1	-1	0.12
Cc1ncc(-c2ccccc2)cc1N1C(=O)NC2(CCCCC2)C1=O	4	-0.7
Cc1cccc(OCCc2noc(C3CN(C(=O)C4CCC4)C3)n2)c1	-17	2.19

SMILES	% Inhibition [%]	Z score
COc1cc2c(cc1OC)CN1C(=O)N(CCC(=O)NCc3cccnc3)C(=O)[C@@H]1C2	-4	0.57
C=CCN1CC[C@H](Cn2cnc(-c3ccccc3)c2-c2cccc(C)n2)C1	-9	1.49
COC[C@@H]1C[C@@H](OC)CN1C(=O)c1nn(-c2ccc(F)cc2)cc1C	0	-0.04
CN1CCN([C@H]2CN(C(=O)c3cccc(CCC(C)(C)O)c3)C[C@@H]2O)CC1	-9	1.28
Cc1cc(O)nc(C(=O)N[C@@H](CC(C)C)CN(C)C)c1	-24	2.6
COc1ccnc(-c2cc(O)cc(CC[C@H]3CCCCN3)c2)n1	-4	0.49
CCC(NC1CCNC1=O)c1ccc(Cl)cc1 (configuration not stated)	-9	1.15
CCc1[nH]ncc1C(=O)NCCc1ccc(C(F)(F)F)cn1	-4	0.44
Cc1cc(CN2CCC[C@H]2c2nc3ccccc3s2)oc1C(=O)O	-6	0.89
CCO[C@@H](C)C(=O)NCc1c(C)n[nH]c1C	-13	1.66
COc1ccc(S(=O)(=O)N2CCOCC2)cc1NC(=O)C1CCCCC1	-7	1.08
O=C1CN(C(=O)COC(=O)Cc2ccc(Cl)cc2)c2ccccc2N1	10	-1.32
O=C(Nc1ncccc1O)c1ccsc1	-19	3.36
O=C(C1CCN(c2cnc3nccnc3c2)CC1)N1CCCC1	1	-0.22
Cc1cc(C)cc(NCC(=O)NCC(F)(F)F)c1	1	-0.14
CCCS(=O)(=O)N1CC[C@@]2(CCCN(CC3CCCCC3)C2=O)C1	3	-0.41
CCOC1CC(N(C)C(=O)c2cn[nH]c2)C1(CC)CC (configuration not stated)	-2	0.33
O=C(c1ccc(CO)o1)N1C[C@H]2CC[C@@H](C1)N(Cc1cscn1)C2=O	3	-0.39
O=C(Nc1ccc(F)c(Cl)c1)N(Cc1ccncc1)C1CC1	-11	1.35
O=C(NCC1CCCCC1)c1ccc2c(c1)nc1n2CCN(C2CCCCC2)C1=O	-3	0.35
COc1ccc(N[C@@H](C)c2nc(-c3ccco3)no2)cc1	-3	0.47
CC(C)[C@H](NS(=O)(=O)c1ccc2ccccc2c1)C(=O)N1CCCCC1	-4	0.5

SMILES	% Inhibition [%]	Z score
CCC[C@H](C)NC(=O)c1c(F)cccc1F	-11	1.29
CN(C(=O)CC1CCCC1)C1CN(c2ccc3nnc(C(C)(C)C)n3n2)C1	-13	1.85
O=C(COC[C@H]1CCCCO1)N1CCN(C(=O)c2ccco2)CC1	0	-0.03
CC(=O)c1cnc(N[C@@H](C)[C@H](O)c2ccc(O)cc2)nc1C	-7	1.09
CCS(=O)(=O)N1C[C@@H]2CN(C(=O)c3ccc(OC)nc3)C[C@]2(c2nc(C)no2)C1	-7	0.93
CN(Cc1ccncc1)Cc1ccnn1C	-4	0.41
COCCNS(=O)(=O)c1ccc(OC)c(-c2nc(C(C)C)no2)c1	-6	1.25
CCCn1nccc1NC(=O)NCc1cn2ccc(C)nc2n1	0	-0.05
O=C(Cc1cnccn1)N[C@H]1CC(=O)N(c2ccc(F)cc2)C1	8	-1.31
O=C(CNC(=O)OCc1ccccc1)NC[C@H](O)c1ccccc1	5	-0.65
CC(=O)N1C(C)CN(S(=O)(=O)c2ccc(C)cc2)C1c1ccc(N(C)C)cc1 (configuration not stated)	33	-3.7
Cc1c(S(=O)(=O)N2CC3CN(c4ccccc4)CC3C2)cnn1C (configuration not stated)	37	-0.93
COc1ccc(C2CC(c3ccc(C)cc3)n3ncnc3N2C(=O)c2ccccc2)cc1 (configuration not stated)	32	-3.62
Cc1c(CCNC(=O)N(C)Cc2ccc(Cl)c(F)c2)cnn1C	3	-0.36
Cc1cccc(N2N=C([C@H]3CCOC3)CC2=O)c1Cl	-7	0.95
O=C(NCc1cn2cccnc2n1)[C@H]1CCCN(Cc2ccco2)C1	-12	2.4
COCC(C)C(=O)N1CCC(N2C(=O)O[C@H]3CN(c4nc(C)nc5c4cnn5C)C[C@H]32)C1 (some centres not stated)	-5	0.97
COc1ccc(-c2ccc(N3CCCC3)nn2)cn1	-11	1.6
CC1NC(=O)C(C)N(C(=O)NCc2ccccc2)C1C (configuration not stated)	-5	1.07
CC(C)Oc1ccc(-c2noc(Cc3nnc(-c4ccc(F)cc4)o3)n2)cc1	-8	0.99
